From paper PMC4336329 (PLoS ONE, 2015)
The campaign covered roughly 310,000 compounds. About 14,000 (4.5%) showed an effect of 50% or more. The effect is printed as a negative number. Some of the results follow.

Target: human ether-à-go-go-related gene (hERG) potassium channel (human, UniProt Q12809)
Experiment: primary screen, population patch clamp on CHO cells stably expressing hERG
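Note: peak tail current of the secondary pulse compared with the same well before compound.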

human ether-à-go-go-related gene (hERG) potassium channel, sequence (Q12809 whole entry, looked up): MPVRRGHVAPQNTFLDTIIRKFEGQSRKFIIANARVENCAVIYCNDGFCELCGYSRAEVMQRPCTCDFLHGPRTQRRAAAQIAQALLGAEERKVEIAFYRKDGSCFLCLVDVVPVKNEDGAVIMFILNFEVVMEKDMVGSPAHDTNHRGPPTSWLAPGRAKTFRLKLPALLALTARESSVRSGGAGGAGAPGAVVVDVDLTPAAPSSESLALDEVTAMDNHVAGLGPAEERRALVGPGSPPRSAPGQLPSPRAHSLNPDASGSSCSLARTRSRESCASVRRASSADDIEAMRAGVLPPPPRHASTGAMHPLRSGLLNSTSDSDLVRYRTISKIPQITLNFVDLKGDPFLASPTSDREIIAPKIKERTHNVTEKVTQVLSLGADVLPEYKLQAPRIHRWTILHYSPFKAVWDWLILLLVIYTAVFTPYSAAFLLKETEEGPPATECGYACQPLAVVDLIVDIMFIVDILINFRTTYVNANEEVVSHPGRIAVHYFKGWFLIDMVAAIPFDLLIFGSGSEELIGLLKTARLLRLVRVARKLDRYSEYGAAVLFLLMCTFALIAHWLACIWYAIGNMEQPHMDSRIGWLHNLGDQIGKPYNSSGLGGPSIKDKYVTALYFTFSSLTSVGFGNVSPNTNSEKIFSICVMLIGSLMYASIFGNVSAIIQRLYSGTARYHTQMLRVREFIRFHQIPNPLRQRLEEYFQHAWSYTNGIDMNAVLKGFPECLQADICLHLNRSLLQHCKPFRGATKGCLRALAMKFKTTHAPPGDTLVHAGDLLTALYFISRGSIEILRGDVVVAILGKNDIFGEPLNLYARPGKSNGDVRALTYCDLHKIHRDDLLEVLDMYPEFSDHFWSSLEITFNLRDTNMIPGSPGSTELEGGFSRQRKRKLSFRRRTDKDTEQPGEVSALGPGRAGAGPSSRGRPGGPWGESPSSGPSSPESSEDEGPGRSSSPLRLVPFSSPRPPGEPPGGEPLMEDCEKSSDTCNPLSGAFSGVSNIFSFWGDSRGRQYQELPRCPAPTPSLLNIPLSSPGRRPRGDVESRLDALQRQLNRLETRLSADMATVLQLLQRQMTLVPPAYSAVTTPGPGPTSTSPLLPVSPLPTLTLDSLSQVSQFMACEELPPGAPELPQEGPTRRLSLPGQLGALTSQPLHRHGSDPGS

SMILES | hERG current change (%, negative = inhibition) at 10uM [%]
CCOc1ncccc1C(=O)NCCc1ccc(OC)cc1 | 5.07
CSc1ccccc1NC(=O)c1c(Br)cnn1C | -1.39
O=C(NNc1ccccc1)Nc1ccccc1F | 22.7
O=C(CN1CCCC1)Nc1cc(C(F)(F)F)cc(C(F)(F)F)c1 | -17.9
O=C(Cc1ccccc1)N1CCN=C1SCc1ccc([N+](=O)[O-])cc1 | -55.5
CCOC(=O)C1=CN(c2cccc(F)c2)C=C(C(=O)OCC)C1c1cc(OC)c(O)c([N+](=O)[O-])c1 | -3.91
CC1=C(C(=O)OC(C)C)C(c2cccs2)C(C(=O)OC(C)C)=C(C)N1 | 0.453
COCCN(Cc1ccccc1)C(=S)Nc1ccc(OC(F)F)cc1 | -69.8
COc1cccc(NC(=O)Nc2nccc(C)n2)c1 | -9.3
CCCCSc1nnc([C@@H]2CCCN2C(=O)OC(C)(C)C)o1 | -12.2
CCCCC(=O)OCC(=O)Nc1ccc(C)c(F)c1 | 14.6
CCOC(=O)N1CCN(C(c2ccc(C(C)C)cc2)c2sc3nc(C)nn3c2O)CC1 (centres unmarked) | -17.8
CC(C)C(=O)Nc1ccc2c(c1)oc1ccccc12 | 5.96
Cc1cc(OCC(=O)NCCc2ccc(Cl)cc2)c2c(C)cc(=O)oc2c1 | 6.87
O=C(Nc1ccccc1)Nc1ccccc1C(=O)NCc1ccccc1 | 10
CCC(=O)Nc1ccc2c(c1)nc(CN1CCN(C(C)=O)CC1)n2C | -0.94
COc1ccc(N2CCOCC2)c(NC(=O)COc2cccc(C)c2)c1 | -1.5
CCn1cc(C(=O)N(CCCN2CCOCC2)Cc2ccco2)c(=O)c2ccc(C)nc21 | 0.42
Cc1ccc(/C=C2\C(=O)NC(=O)N(CCc3ccc(F)cc3)C2=O)o1 | 17.1

SMILES | hERG current change (%, negative = inhibition) at 10uM [%]
C=Cc1ccc(N=Cc2c(O)ccc3ccccc23)cc1 | 15.4
CC1(c2nnc(-c3cccc(Cl)c3)o2)CC(c2cccc([N+](=O)[O-])c2)=NO1 (centres unmarked) | -1.17
OCCN(Cc1ccccc1)Cc1ccccc1Cl | -4.5
COP(=O)(OC)c1nc(-c2ccccc2)oc1N1CCOCC1 | 8.32
COC(=O)c1sc(N)c(C(=O)OC)c1COC(=O)CNS(=O)(=O)c1cccc(C#N)c1 | -9.99
NCCNC(=O)Cn1c(=O)c2c3c(sc2n(Cc2ccccc2)c1=O)CCCC3 | 0.982
COc1ccc(NC(=O)NNC(=O)c2ccc(-c3ccccc3)cc2)cc1 | 4.72
CC1=CCCC(C)(C)C1/C=C/C(C)=N/NC(=O)c1ccncc1 (centres unmarked) | -24.6
Cn1c(=O)c2c(SCC(=O)Nc3ccc4c(c3)OCCO4)nc(CC(C)(C)C)nc2n(C)c1=O | -12.5
O=C(c1ccco1)N1CCC(c2ccccc2)C1 (centres unmarked) | -30.5
C/C(=N\NC(=O)c1ccccc1)c1ccc(C)c([N+](=O)[O-])c1 | 16.6
O=C1CCCCCC1C1(O)C(=O)Nc2ccc(Br)cc21 (centres unmarked) | 14.1
CC1CCCC(NC(=O)COC(=O)c2sc3ccccc3c2Cl)C1C (centres unmarked) | 15.2
COc1ccc(NC(=O)c2ccc(N3C(=O)C4CC=C(C)CC4C3=O)cc2)c(OC)c1 (centres unmarked) | -12.3
O=C(CN1CCN(C(=O)c2cccc(F)c2)CC1)Nc1ccccc1F | -70.1
COC(=O)C1=C(C)N(Cc2cccnc2)C(=O)/C1=C\c1sccc1C | -79.2
CCCCn1c(N)c(N(CC(C)C)C(=O)c2cc(C)oc2C)c(=O)[nH]c1=O | 8.94
CCOc1ccc(CN(Cc2ccco2)S(=O)(=O)c2ccc(-n3cnnn3)c(OC)c2)cc1 | -7.18
Cl.O=C(COc1ccc2ccc(=O)oc2c1)N1CCN(c2ccccc2)CC1 | -9.19

SMILES | hERG current change (%, negative = inhibition) at 10uM [%]
COC(=O)c1ccc(NC(=O)CSc2nnc(CNc3ccc(F)cc3)n2C)cc1 | -4.32
COCCN1C(=O)/C(=C2/C(=O)N(CC(=O)Nc3ccccc3Cl)c3ccccc32)SC1=S | 20.6
O=C1CC(c2ccccc2)CC2=C1C(c1ccccn1)Nc1ccccc1N2 (centres unmarked) | 9.64
O=C(Nc1nc2c(s1)CCCC2)c1ccc(Br)o1 | 9.31
C=CCn1c(SCC(=O)Nc2nnc(C)s2)nnc1-c1cccnc1 | 23.4
CN(C)c1cccc(C(=O)OCC(=O)N2CCc3ccccc3C2)c1 | -15.3
CCOc1cc(-c2c(C#N)c(N)nc3c2CCCC3)ccc1O | 8.69
CCOc1ccc(CC(=O)Nc2cccc(-c3ccc4nnc(C)n4n3)c2)cc1 | -51.1
CCc1ccccc1NC(=S)NC1CC2CCC(C1)N2Cc1ccco1 (centres unmarked) | -29.8
CCOc1ccc(N(CC(=O)Nc2ccc(C)c(C)c2)S(C)(=O)=O)cc1 | 12.2
O=C(NCc1ccc(N2CCCC2=O)cc1)c1ccc(F)cc1 | 10.3
Brc1ccc(-c2ccc(/C=N/Nc3nc(N4CCOCC4)nc(N4CCOCC4)n3)o2)cc1 | -16.7
Brc1ccc(-c2cnnc(N3CCCC3)n2)cc1 | -9.15
Cc1nnc(C)n1/N=C/c1cccc(Oc2ccccc2)c1 | -14.2
Cc1nc(CS(=O)(=O)c2ccc(Cl)cc2)cc(Sc2ccccc2Cl)n1 | -22.5
CC(=O)Nc1ccc2nc(NC(=O)CS(=O)(=O)c3ccccc3)sc2c1 | 3.27
CN(c1ccc(C(=O)Nc2ccc3c(c2)OCO3)cc1)S(C)(=O)=O | 2.39
COc1cccc(C(=O)C2CCCN(C3CCOCC3)C2)c1 (centres unmarked) | -50.4
